{"source": "PubChem BioAssay AID2101", "about": "(National Center for Advancing Translational Sciences (NCATS), 2009)", "note": "About 300 (0.091%) of roughly 330,000 compounds were called active. Inconclusive results, whose numbers are uncertain, are shown with a selection of clear calls. The call rests on the fitted dose curve; in most records, active means well fitted inhibition curve with a large enough effect; inconclusive means small, poorly fitted or top-dose-only effect, or effect the other way, or another doubt; inactive means no such curve, though single readings can be large or run the other way. Potencies of inconclusive entries are left out as doubtful fits. Potency means the concentration at half of the fitted maximal effect."}
{"molecular_target": "Lysosomal acid glucosylceramidase (Homo sapiens) (UniProt P04062)", "assay": "qHTS Assay for Inhibitors and Activators of N370S glucocerebrosidase as a Potential Chaperone Treatment of Gaucher Disease;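 on activity change, negative = inhibition: 0% = full enzyme activity and -100% = no enzyme basal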", "settings": "N370S GC spleen homogenate, 4MU-glucoside fluorescence; activity change, negative = inhibition: at 59.4 µM (top of the series) unless noted"}
{"smiles": "COCCCn1c(=O)c2sccc2n(Cc2cccc(F)c2)c1=O", "activity change, negative = inhibition": "inactive: -16.8%"}
{"smiles": "O=C(CC1C(=O)N(Cc2ccccc2)C(=S)N1CCN1CCOCC1)Nc1ccc(F)cc1", "note": "(stereo not given)", "Potency": "inconclusive [inhibitor, single point]"}
{"smiles": "COc1ccc(N(CC(=O)Nc2cc(Cl)ccc2OC)S(=O)(=O)c2c(C)[nH]c(=O)[nH]c2=O)cc1", "Potency": "inconclusive [inhibitor, partial curve]"}
{"smiles": "CCCCC1OC23CCCCC2C(C#N)(C#N)C1(C#N)C(=N)O3", "note": "(stereo not given)", "activity change, negative = inhibition": "inactive: 6.53%"}
{"smiles": "O=C(COc1ccccc1Br)Nc1ccc2c(c1)OCCCO2", "Potency": "inconclusive [activator, partial curve]"}
{"smiles": "Cc1cccc(NC(=S)N/N=C/c2cccn2Cc2ccc(F)cc2)c1", "Potency": "inconclusive [activator, partial curve]"}
{"smiles": "COc1ccccc1CNC(=O)CCC(=O)Nc1nnc(C(C)C)s1", "Potency": "inconclusive [inhibitor, partial curve, poor fit]"}
{"smiles": "Cc1ccc2cc(C#N)c(SCC(=O)NNC(=O)Cc3ccccc3)nc2c1", "activity change, negative = inhibition": "inactive: 1.94%"}
{"smiles": "Cc1cc(NC(C)C)n2c(nc3ccccc32)c1C#N", "Potency": "inconclusive [activator, partial curve]"}
{"smiles": "O=C(COc1ccc(/C=N/NS(=O)(=O)c2ccccc2)cc1)Nc1cccc(Cl)c1", "Potency": "inconclusive [inhibitor, partial curve]"}
{"smiles": "CC(C)(C)C(=O)Nc1nnc(CSCc2ccccc2F)s1", "Potency": "inconclusive [activator, partial curve, poor fit]"}
{"smiles": "COCCN(C(=O)COC(=O)/C=C/c1ccc(C(F)(F)F)cc1)c1c(N)n(Cc2ccccc2)c(=O)[nH]c1=O", "Potency": "inconclusive [activator, single point]"}
{"smiles": "CCOc1cccc2sc(N(CCCN(C)C)C(=O)Cc3ccccc3)nc12", "Potency": "inconclusive [inhibitor, partial curve]"}
{"smiles": "Cc1cccc2cc3c(NC(=O)C(C)C)nn(C)c3nc12", "Potency": "inconclusive [inhibitor, full curve, poor fit]"}
{"smiles": "C=CCc1ccc(OCCCCN2CC(C)OC(C)C2)c(OC)c1", "note": "(stereo not given)", "Potency": "inconclusive [inhibitor, single point]"}
{"smiles": "O=C(CCC(=O)NCCCc1ccccc1)NCCCc1ccccc1", "Potency": "inconclusive [inhibitor, single point]"}
{"smiles": "COc1ccc(/C=C2/SC(=S)N(CCCC(=O)N3CCN(C)CC3)C2=O)cc1", "Potency": "inconclusive [inhibitor, partial curve]"}
{"smiles": "O=C(NC1CCCCCCC1)c1ccc(S(=O)(=O)N2CCCC2)cc1", "Potency": "inconclusive [activator, partial curve]"}
{"smiles": "Cc1cccc(-c2nc3ccccc3c(=O)n2NC(=O)Cc2ccc(Cl)cc2)c1", "Potency": "inconclusive [activator, single point]"}
{"smiles": "COC(=O)c1cn(NC(=O)c2ccc([N+](=O)[O-])c(C)c2)c(=O)c2ccccc12", "Potency": "inconclusive [inhibitor, single point]"}
{"smiles": "CCOC(=O)c1ccc(NC(=O)c2cc3ccccc3o2)cc1", "Potency": "inconclusive [activator, partial curve]"}
{"smiles": "COc1ccc(C2Nc3ccccc3C(=O)N2Cc2ccccc2)cc1COc1ccc(Cl)cc1Cl", "note": "(stereo not given)", "Potency": "inconclusive [activator, single point]"}
{"smiles": "Cc1ccc(N(CC(=O)Nc2ccccc2C(=O)NCc2ccco2)S(=O)(=O)c2ccccc2)cc1C", "activity change, negative = inhibition": "inactive: 16.7%"}
{"smiles": "O=c1nc2ccc(Cl)cn2c2ccc(S(=O)(=O)N3CCOCC3)cc12", "Potency": "inconclusive [activator, full curve]"}
{"smiles": "COc1ccc(OC)c(/C=N/NC(=S)NCCc2ccccc2)c1", "Potency": "inconclusive [activator, partial curve]"}
{"smiles": "O=c1ccc2ccccc2[nH]1", "activity change, negative = inhibition": "inactive: -12.1%"}
{"smiles": "O=C(NC(=S)Nc1ccc(N2CCOCC2)cc1)c1ccccc1", "activity change, negative = inhibition": "inactive: 2.33%"}
{"smiles": "Cc1ccc(C(=O)NCC(=O)OCC(=O)Nc2ccccc2[N+](=O)[O-])cc1", "Potency": "inconclusive [activator, partial curve, poor fit]"}
{"smiles": "COC(=O)C(Cc1ccc(O)cc1)NC(=O)C12CC3CC(CC(C3)C1)C2", "note": "(stereo not given)", "Potency": "inconclusive [inhibitor, partial curve]"}
{"smiles": "C/C=C1\\COC(C(=O)NCCN2CCOCC2)(C(F)(F)F)C=C1C=C1CCCCC1", "note": "(stereo not given)", "Potency": "inconclusive [inhibitor, partial curve]"}
{"smiles": "CCOC(=O)c1sc(NC(=O)COC(=O)CNC(=O)c2ccco2)c(C(=O)OCC)c1C", "Potency": "inconclusive [activator, full curve, poor fit]"}
{"smiles": "COc1ccc(C(CC(=O)N2CCCCC2)c2c(OC)cc(OC)c3c(-c4ccccc4)cc(=O)oc23)cc1", "note": "(stereo not given)", "Potency": "inconclusive [activator, partial curve]"}
{"smiles": "Cc1cnc(C(=O)OCC(=O)NC(C)C)cn1", "Potency": "inconclusive [inhibitor, single point]"}
{"smiles": "Cc1ccc(-c2nc(CS(=O)(=O)CC(=O)NCCN3CCOCC3)c(C)o2)cc1", "activity change, negative = inhibition": "inactive: -13.8%"}
{"smiles": "COc1ccccc1C(=O)N/C(=C\\c1cn(S(=O)(=O)N(C)C)c2ccccc12)C(=O)NCCCN1CCOCC1", "Potency": "inconclusive [inhibitor, single point]"}
{"smiles": "O=C(O)c1cccc(NC(=O)c2cccc(S(=O)(=O)N3CCc4ccccc4C3)c2)c1", "Potency": "inconclusive [inhibitor, partial curve]"}
{"smiles": "CCN(CC)CCCN(Cc1cc2cc3c(cc2[nH]c1=O)OCO3)C(=S)NC", "Potency": "inconclusive [activator, partial curve]"}
{"smiles": "Cc1[nH]c2ccccc2c1C(=O)CSc1nc2ccccc2c(=O)n1CCCN1CCOCC1", "Potency": "active: 10 µM"}
{"smiles": "CC(C)c1ccc(NC(=O)CSc2nc(=O)n(CCCN3CCOCC3)c3c2CCC3)cc1", "activity change, negative = inhibition": "inactive: -14%"}
{"smiles": "Cc1nn(-c2ccc(Br)cc2)c(=O)c2ccccc12", "Potency": "inconclusive [inhibitor, single point]"}
{"smiles": "Cc1ccc(S(=O)(=O)CC(=O)N(CCCN(C)C)c2nc3ccc(C)cc3s2)cc1", "Potency": "inconclusive [inhibitor, partial curve]"}
{"smiles": "O=C1NC2(Nc3ccccc31)C(=O)Nc1ccccc12", "note": "(stereo not given)", "Potency": "inconclusive [activator, partial curve]"}
{"smiles": "CCn1ccnc1CN(C)Cc1cn(-c2cccc(C)c2)nc1-c1cccc(F)c1", "Potency": "inconclusive [inhibitor, partial curve]"}
{"smiles": "c1ccc(-c2cn3c4c(sc3n2)CCCC4)cc1", "Potency": "inconclusive [activator, single point]"}
{"smiles": "CC(C)OC(=O)CSc1nc2c(c(C3CC=CCC3)c1C#N)CCC2", "note": "(stereo not given)", "Potency": "inconclusive [activator, partial curve]"}
{"smiles": "COc1ccc(NC(=O)NNC(=O)C(O)(c2ccccc2)c2ccccc2)cc1", "activity change, negative = inhibition": "inactive: -0.924%"}
{"smiles": "Cc1ccccc1-c1nc(NC2CC2)c2ccccc2n1", "Potency": "inconclusive [inhibitor, partial curve]"}
{"smiles": "O=C(O)CN1C(=O)/C(=C\\c2cc(Br)ccc2OCc2ccc(F)cc2)SC1=S", "Potency": "inconclusive [activator, single point]"}
{"smiles": "CN(C)C(=O)c1coc2nc3ccccc3nc12", "Potency": "inconclusive [activator, single point]"}
{"smiles": "COC(=O)C1CN(C(=O)C(C)Oc2cc(C)ccc2C(C)C)c2ccccc2O1", "note": "(stereo not given)", "Potency": "inconclusive [activator, single point]"}
{"smiles": "COCCn1c(-c2ccco2)nc2nc3ccccc3nc21", "Potency": "inconclusive [activator, partial curve]"}
{"smiles": "CCOC(=O)C(CCc1ccccc1)NC(C)C(=O)N1Cc2cc(OC)c(OC)cc2CC1C(=O)O", "note": "(stereo not given)", "activity change, negative = inhibition": "inactive: -11.1%"}
{"smiles": "COc1cccc(/C=C2\\SC(=O)N(CC(=O)NCCCn3ccnc3)C2=O)c1", "Potency": "inconclusive [inhibitor, partial curve]"}
{"smiles": "CSCCC(NS(=O)(=O)c1ccc(Cl)cc1)C(=O)OCC(=O)NC12CC3CC(CC(C3)C1)C2", "note": "(stereo not given)", "Potency": "inconclusive [activator, partial curve]"}
{"smiles": "CCN(CC)Cc1c(O)c(Cl)cc2c3c(c(=O)oc12)CCCC3", "Potency": "inconclusive [activator, partial curve]"}
{"smiles": "O=C(NCc1cccnc1)C(=O)NCC(c1ccco1)N1CCN(c2ccccc2F)CC1", "note": "(stereo not given)", "activity change, negative = inhibition": "inactive: 3.29%"}
{"smiles": "CCOC(=O)c1c(NC(=O)c2ccn(CC)n2)sc2c1CCCC2", "Potency": "inconclusive [activator, partial curve]"}
{"smiles": "O=C(CSc1nc2ccccc2c(=O)n1CCCO)Nc1ccc2c(c1)OCCO2", "Potency": "inconclusive [activator, partial curve]"}
{"smiles": "Cc1cc2n(n1)C(c1c[nH]c3ccccc13)Nc1ccccc1-2", "note": "(stereo not given)", "activity change, negative = inhibition": "inactive: 10.2%"}
{"smiles": "O=C(NC(Cc1ccccc1)c1ccc2c(c1)OCCCO2)c1ccccc1F", "note": "(stereo not given)", "Potency": "inconclusive [activator, single point]"}
{"smiles": "CC(C)(C)c1ccc(/C=C/C(=O)N2CCOCC2)cc1", "activity change, negative = inhibition": "inactive: 4.47%"}
{"smiles": "CC(=O)c1ccc(NC(=O)c2ccc(N3CCCC3=O)cc2)cc1", "activity change, negative = inhibition": "inactive: 2.6%"}
{"smiles": "COc1ccc(OC)c(/C=N/NC(=O)CNC(=O)c2cccc3ccccc23)c1", "Potency": "inconclusive [activator, single point]"}
{"smiles": "COc1cc2ccc(=O)oc2c(O[C@@H]2O[C@H](CO)[C@@H](O)[C@H](O)[C@H]2O)c1O", "Potency": "inconclusive [activator, partial curve]"}
{"smiles": "O=C(N/N=C/c1ccc(OC(F)F)cc1OC(F)F)NC1CCCCC1", "Potency": "inconclusive [activator, partial curve]"}
